From the RNAGym collection of RNA variant scans (doi:10.1093/nar/gkz1192)
The source gives no read counts; variants with many changes may rest on few reads.

B1: CPEB3 Ribozyme (parent)
chain: UAACAGGGGGCCACAGCAGAAGCGUUCACGUCGCAGCCCCUGUCAGAUUCUGGUGAAUCUGCGAAUUCUGCUGUAUAUCUC

Variants of: B1
Assay: self-cleavage, relative activity (ratio to wild type); higher = more cleavage; in vitro, sequencing
In short: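 Relative activity was defined as the cleaved/total read fraction for a variant divided by the same fraction for the unmutated ribozyme. CPEB3 self-cleaving ribozyme libraries were made by rounds of error-prone PCR, barcoded, and transcribed in vitro with T7 RNA polymerase for 5 hours at 37°C, and cleavage ran through transcription plus a 15 min DNase I step before EDTA. Illumina sequencing of template-switched reverse transcripts gave the reads, and DNA sequencing mapped the barcodes. Averages come from three batches, using variants with at least 5 reads.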

Row | Variant | self-cleavage
1 | G19A A21G A35U C39A G46C A77G | 0.04
2 | A20G A21U U31A U41A U58C A65G | 0.05
3 | G19A G22U C39U A47G A57C G63A | 0.09
4 | G19U C37A U51C | 0.11
5 | A20G A21G A45U A47G G70A A77G | 0.09
6 | A20G A28G U41A A57G U72C | 0.25
7 | A18U U54A C59U | 0.33
8 | G19U U41A A45G A57G | 0.17
9 | G19A A35C C39U U60C | 0.1
10 | G19U G30A A77C | 0.07
11 | A20G C23A U72C C79A | 0.46
12 | A20C A21G U60A C62U | 0.17
13 | G19U A21G U54C | 0.2
14 | G19A A28G G73A | 0.42
15 | A20C U31C U43A A47U A56G U60C C68U | 0.07
16 | A20G A21G A64G U72C | 0.12
17 | A20C A28C U67A | 0.09
18 | A20G A45G A64G U78C | 0.38
19 | A20G C23A U43A C68A U69A | 0.14
20 | A20G A57G U66C U72A | 0.14
21 | G19A U25C U43C A56G | 0.21

Row | Variant | self-cleavage
22 | G19A A35G A56G U60A U69C | 0.05
23 | A20G A28G U67C | 0.26
24 | A20G A21G U25A A45C G55A | 0.33
25 | G19A U78C U80A | 0.48
26 | A20G A64G U74C | 1.19
27 | G19A A47G U74C | 0.24
28 | A20C A21U C44A U60A U78C | 0.1
29 | A20G A56G U66C | 0.14
30 | A20G A35G U60G | 0.81
31 | A20G A45U U69C U76A | 0.29
32 | G19U C23U U26C U41C A75U | 0.28
33 | A20C U26C C59A U72C | 0.13
34 | A20G A28U C29U C44A U49G | 0.23
35 | A20G A21G U25C U26C A35C G52U | 0.45
36 | A20G A35G U54C A75U C79G | 1.28
37 | A20G A35G G61U U76A | 1.1
38 | A20G A28U A64G | 0.39
39 | A20G A28G C38U U43A U49A U76A | 0.05
40 | G19U A47U U54C | 0.12
41 | G19A U26C U67C | 0.11
42 | A18U U60C U72A | 0.21

Row | Variant | self-cleavage
43 | G19U C32U U43C A45U U51C | 0.08
44 | A20C U25A U41C U80C | 0.13
45 | A20C U51A A57G | 0.1
46 | A20C U49A U72A U78C | 0.22
47 | A20G A35U U58C U74C | 0.34
48 | G19A U49C U58C C81G | 0.15
49 | A20G A35U A45C U60G U69C | 0.16
50 | G19C A20G U72A | 0.25
51 | A20C U66C U76A U80C | 0.23
52 | A20G A45G U49A U58C U80C | 0.1
53 | A20G A47U A56G | 0.21
54 | A20G A21G U26C U72C | 0.05
55 | A20G A35G U58C U72C | 0.99
56 | G19C A20G C37U U60C C62G G73A | 0.04
57 | A20G A21U U51A U80C | 0.14
58 | A20C C44U U54C U60C U74C | 0.05
59 | A20G A35C A47G | 0.41
60 | A20C C39U U58C U74A | 0.07
61 | A20G A45G U66A U76C | 0.37
62 | A20G A21C G22A U41C A57G U76A | 0.07
63 | A20G A28G C29U U60C U67C U72A | 0.07

Row | Variant | self-cleavage
64 | A20G A35G C59U U60C | 0.23
65 | A20C A28G U41C A45G | 0.17
66 | A20G A28G C37A C62U U69G A77G | 0.03
67 | G19U U49A A65U U69A U78C | 0.06
68 | A20G A64G U69A | 0.13
69 | A20G A35C G46A U66C | 0.14
70 | G19A A56G G73A | 0.13
71 | G19C C38G U41A U66G U67A U74C | 0.07
72 | A20G A45U U54C G61C U74A | 0.19
73 | G19C U26C C32U A57G | 0.16
74 | A18U U66C U74A | 0.17
75 | G19U A20G A45U G46A C50U | 0.07
76 | A20G C27A A64U | 0.25
77 | A20G A21G U25A C39U U48A U58C G61C | 0.03
78 | A20G A28U U51A | 0.63
79 | A20G A35G A45U | 1.12
80 | G19U A20G U41C U72A U74A | 0.22
81 | G19U A21G A57G | 0.17
82 | A20G A56U A64G | 0.32
83 | A20G A47U U54A A65G | 0.14
